# In PubChem BioAssay (NCATS):
# Where “and” joins values, the source holds several entries; their conditions need not be identical. Equal values may be shown once. Inconclusive results, whose numbers are uncertain, are shown with a selection of clear calls. Potencies of inconclusive entries are doubtful fits and often do not repeat. Some structures have more than one record in an assay (separate samples or runs), and their calls can disagree. Calls of active or inactive are those of the source. The call rests on the fitted dose curve; in most records, active means well fitted activation curve with a large enough effect; inconclusive means small, poorly fitted or top-dose-only effect; inactive means no such curve, though single readings can be large or run the other way.
# Biological target: Cellular tumor antigen p53 (Homo sapiens) (UniProt P04637)
# Sequence of UniProt P04637 (P04637 whole entry, looked up): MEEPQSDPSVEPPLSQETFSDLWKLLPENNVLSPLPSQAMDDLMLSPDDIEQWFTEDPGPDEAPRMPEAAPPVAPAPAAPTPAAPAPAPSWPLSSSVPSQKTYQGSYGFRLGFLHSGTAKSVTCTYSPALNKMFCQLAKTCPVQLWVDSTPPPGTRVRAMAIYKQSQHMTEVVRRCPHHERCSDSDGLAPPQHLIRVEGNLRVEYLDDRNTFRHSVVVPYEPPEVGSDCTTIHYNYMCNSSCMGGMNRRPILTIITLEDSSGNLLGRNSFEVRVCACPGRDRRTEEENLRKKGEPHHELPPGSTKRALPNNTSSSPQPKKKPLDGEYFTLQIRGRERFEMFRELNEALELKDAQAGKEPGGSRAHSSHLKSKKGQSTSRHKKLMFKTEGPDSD
# Assay: Primary qHTS for small molecule compounds that upregulate eGFP-tagged delta133p53alpha (in N-terminal) cells. (AID 2060322);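 further: cells pre-induced with doxycycline then dosed without doxycycline; nearly all actives have a fitted effect of over 75% in size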;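 on activation: series mostly up to about 56 µM; 0% = DMSO vehicle and 100% = reference activator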
# Details: NCI-H358 eGFP-delta133p53alpha fluorescence, 24 h; activation: stronger effect = higher value
# Excerpt: Assay Development and Screening Technology
# National Center for Advancing Translational Sciences (NCATS),
# National Institute of Health (NIH), Rockville, Maryland
# Cellular senescence (CS) is one of the hallmarks of aging and age-related diseases. Senescent cells are characterized by an irreversible growth arrest, an increase in senescence-associated beta-galactosidase (SA-beta-gal) activity and p16INK4a expression, an activation of the DNA damage response pathways, and the emergence of a senescence-associated secretory phenotype (SASP).
# Delta133p53alpha, a human/primate-specific p53 protein isoform, delays or inhibits the induction of CS and SASP in various types of human cells, including progeria-derived fibroblasts, primary normal astrocytes, and CD8+ T lymphocytes. Induction of delta133p53alpha with small molecule compounds may provide therapeutic opportunities for inhibition of senescence/SASP-associated pathologies in progeria syndromes, astrocyte-mediated neuroprotection in neurodegenerative diseases, and possibly prevention and treatment of a wider range of senescence- and aging-associated diseases.
# Here we report the development and validation of a cell-based quantitative high throughput screening (qHTS) assay in 1,536-well format. This qHTS assay uses the NCI-H358 cell line with doxycycline-inducible expression of enhanced green fluorescent protein (eGFP)-tagged delta133p53alpha, which allows efficient and highly quantitative measurement of the protein levels.
# PROTOCOL TABLE (as described by Inglese J, Shamu CE and Guy RK. 2007)
# SEQUENCE No. (e.g., 1, 2, 3, etc.); […] (e.g., Cells, Incubation, Reagent, etc.); VALUE; DESCRIPTION.
# 1; Cells; 4uL; 800 doxycycline treated cells / well in doxycycline-free media, 1536-well black, clear-bottom low base Aurora microplates.
# 2; Compounds; 23 nL; Kalypsis pin tool (Wako) equipped with 1536-well pin heads, 5-azacytidine positive control.
# 3; Incubation; 24 hr; 37C, 5% CO2; 95% relative humidity.
# 4; Aspiration; 1x; BioTek EL406 washer dispenser (Agilent).
# 5; Fixing; 3.5% paraformaldehyde, BioTek EL406 washer dispenser (Agilent).
# 6; Washing; 1x PBS; BioTek EL406 washer dispenser (Agilent).
# 7; Nuclei staining; 1:1000 dilution of Hoechst 33342 (Thermofisher), BioTek EL406 washer dispenser (Agilent).
# 8; Incubation; 20 min; in the dark at room temperature.
# 9; Washing; 2x, 1x PBS (ThermoFisher), BioTek EL406 washer dispenser (Agilent).
# 10; Reagent; 10 uL; 1x PBS per well, sealed with clear adhesive tape.
# NOTES (numbers refer to sequence numbers above).
# 1. NCI-H358 cells expressing eGFP-tagged delta133p53alpha were grown in T75 culture flasks and treated with doxycycline for 24h, at 10 ng/ml for eGFP-D133p53a cells (N-terminal cell) and 100 ng/ml for D133p53a-eGFP cells (C-terminal cells). Cells were trypsinized, counted using a Counted 3 Automated Cell Counter (Thermo Fisher), and diluted to a concentration of 200,000 cells/ml. A Multidrop Combi Reagent Dispenser (ThermoFisher) was used to dispense 800 cells/well in […] of doxycycline-free media, into 1536-well black/clear bottom low base plates (AuroraMicroplates).
# 2. After plating cells, 23 nl of compound library, DMSO vehicle control or positive control (5-azacytidine) were transferred by Pin Tool (Wako). The plate map layout was the same for each plate: (column 1) non-doxycycline treated cells + DMSO vehicle control; (column 2) doxycycline treated cells + DMSO vehicle control baseline; (column 3) doxycycline treated cells + positive control 57.5 uM final concentration 5-azacytidine; (column 4) doxycycline treated cells + serial dilution of 5-azacytidine, 16-point 1:2 titration spanning 1.8 nM to […] final concentration; (columns 5-48) doxycycline treated cells + titration of library compounds.
# 3. Cells were incubated at 37 °C, 5 % CO2, 95% RH with breathable metal lid for 24h.
# 4-10. […] After two washes, 10 ul of 1X PBS (Thermo Fisher) was dispensed to each well. Clear adhesive plate seals (VWR) were applied and plates stored at 4 °C.
# 11. […]
# Potency means the concentration at half of the fitted maximal effect; tags describe the fitted curve by direction and shape.
SMILES,activation,Potency
COc1cc2c(cc1O)C1(Cc3ccc4c(c3C1=O)OCO4)N(C)CC2 (stereo not given),inactive: -7.63%,
COc1ccc(CC2C(=O)NC(C)C(=O)N(C)C3Cc4ccc(cc4)Oc4cc(ccc4OC4OC(CO)C(O)C(O)C4O)CC(C(=O)NC(C)C(=O)NC(C)C(=O)N2C)N(C)C3=O)cc1 (stereo not given),,active: 5.09 µM
CC(C)C1=CC2=CCC3[C@](C)(CCC[C@@]3(C)C(=O)O)C2CC1O (stereo not given in full),inconclusive: 33% [activator],
CC=C1NC(=O)[C@H]2CSSCCC=C[C@H](CC(=O)N[C@H](C(C)C)C(=O)N2)OC(=O)[C@H](C(C)C)NC1=O,inactive: 27.9%,
C#C[C@]1(OC(C)=O)CC[C@H]2[C@@H]3CCC4=C/C(=N/O)CC[C@@H]4[C@H]3CC[C@@]21CC,,"inconclusive: 21.9 µM [activator, partial curve, poor fit]"
Cc1ccc(S(=O)(=O)N[C@@H](Cc2ccccc2)C(=O)CCl)cc1,,"inconclusive: 37.9 µM [activator, single point]"
C[C@@H]1C[C@H]2[C@@H]3CCC4=CC(=O)C=C[C@]4(C)[C@@]3(F)[C@@H](O)C[C@]2(C)[C@@]1(O)C(=O)COC(=O)c1ccncc1,inactive: -8.37%,
Cc1nc(N)sc1-c1ccnc(Nc2ccc(N3CCOCC3)cc2)n1,,active: 26.9 µM
C/C=C/C=C/C=C/C(=O)O[C@@H]1C=C2COC(=O)[C@]2(O)[C@@]2(C)CCCC(C)(C)[C@H]12,,"inconclusive: 18.5 µM [activator, single point]"
Cc1ccc(N2CCN(CCC3NC(=O)c4ccccc43)CC2)cc1C (stereo not given),inactive: -7.16%,
FC(F)(F)C(F)(F)C(F)(F)C(F)(F)C(F)(F)C(F)(F)C(F)(F)C(F)(F)Br,inactive: -14.1%,
CC(C)NCCCC1(C(N)=O)c2ccccc2-c2ccccc21,inactive: 4.18%,
C=C[C@H](/C=C\c1ccc(O)cc1)c1ccc(O)cc1,,"inconclusive: 21.3 µM [activator, single point]"
C/C(=C\CCC1(C)C2CC3C(C2)C31C)C(=O)O (stereo not given),inactive: 5.36%,
CNC(=O)CN1CCC(Oc2cc3c(Nc4cccc(Cl)c4F)ncnc3cc2OC)CC1,inactive: 14.3%,active: 13.7 µM
O=C(CCCN1CCC(O)(c2ccc(Cl)cc2)CC1)c1ccc(F)cc1,,"inconclusive: 38.9 µM [activator, single point]"
CNC(=O)CN(CCN(CCN(CC(=O)[O-])CC(=O)NC)CC(=O)[O-])CC(=O)[O-].O.[Gd+3],inactive: 0.837%,
CC(=O)N1CCN([C@H]2CCN(C(=O)N(C)[C@H](C)c3cc(C(F)(F)F)cc(C(F)(F)F)c3)[C@@H](c3ccc(F)cc3C)C2)CC1,,"inconclusive: 37.9 µM [activator, single point]"
COc1cc([C@@H](O[C@@H]2O[C@H](CO)[C@@H](O)[C@H](O)[C@H]2O)[C@@H]2CO[C@H](c3ccc(O)c(OC)c3)[C@H]2CO)ccc1O,,"inconclusive: 2.94 µM [activator, single point]"
COc1cc(NS(=O)(=O)c2ccc(N)cc2)nc(OC)n1,,"inconclusive: 0.0871 µM [activator, single point]"

SMILES,activation,Potency
Cc1cc2c(cc1CC(=O)c1sccc1S(=O)(=O)Nc1onc(C)c1Cl)OCO2,inactive: -10% and inactive: -11%,
COc1cccc2nc(-c3cccs3)nc(NN3C(=O)C=C(C)C3=O)c12,,"active: 19.3 µM and inconclusive: 2.39 µM [activator, partial curve, poor fit]"
CC(CCc1ccc(O)cc1)O[C@@H]1O[C@H](CO[C@@H]2OC(CO)[C@H](O)[C@H]2O)[C@@H](O)[C@H](O)[C@H]1O (stereo not given in full),inactive: -13.7%,
COC(=O)CCSCc1ccc(-c2onc(C)c2NC(=O)OC(C)c2ccccc2Cl)cc1 (stereo not given),inactive: -5.25%,
NC(=O)c1ccc2[nH]ccc2c1,,"inconclusive: 0.109 µM [activator, full curve, poor fit]"
Cc1noc(-c2ccc(-c3ccc(CC(=O)O)cc3)cc2)c1NC(=O)O[C@H](C)c1ccccc1Cl,,"inconclusive: 37.9 µM [activator, single point]"
Cc1cc(=O)oc2c(C=O)c(O)ccc12,,"inconclusive: 21.3 µM [activator, single point]"
CC(C)c1nn(-c2c(Cl)cccc2Cl)c2nc(Cc3ccc(OCCO)cc3)[nH]c(=O)c12,,active: 68.5 nM and active: 60.1 nM
Nc1ncnc2n[nH]c(Nc3ccc(F)cc3)c12,,"inconclusive: 33.8 µM [activator, single point]"
NCCCS(=O)(=O)O,inactive: 14.5%,
CCC(C(=O)O)C1CCC(C)C(C(C)C(O)C(C)C(=O)C(CC)C2OC3(C=CC(O)[C@@]4(CC[C@](C)(C5CC[C@@](O)(CC)C(C)O5)O4)O3)C(C)CC2C)O1 (stereo not given in full),,"inconclusive: 38.5 µM [activator, partial curve, poor fit]"
CC(=NNC(=S)N1CCC1)c1ccccn1,,"inconclusive: 0.153 µM [activator, full curve, poor fit]"
O=[N+]([O-])c1cccc2[nH]c(CNc3nc(N4CCOCC4)nc4c3ncn4-c3ccsc3)nc12,,active: 0.301 µM
CN(C)[C@@H]1C(=O)C(C(N)=O)=C(O)[C@@]2(O)C(=O)C3=C(O)c4c(O)cccc4C[C@H]3C[C@@H]12,,active: 17.4 µM
CC(CC12CCCN1C(=O)C1CCCN1C2=O)OC(N)=O (stereo not given),inactive: -18.3%,
Cc1ccc(NC(=O)c2cccc(N(C)C)c2)cc1NC(=O)c1ccc(O)cc1,inactive: -4.71%,
CC(=O)OC[C@]12[C@H](OC(C)=O)[C@H](OC(=O)c3ccccc3)[C@@H]3[C@@H](OC(C)=O)[C@]1(OC3(C)C)[C@H](C)C[C@H](OC(=O)c1ccccc1)[C@@H]2OC(=O)c1ccccc1,inactive: -31.3%,
CC1CCC(n2c3cnccc3c3cnc(Nc4ccc5c(n4)CCN(C(=O)CO)C5)nc32)CC1 (stereo not given),,active: 23.9 µM
CCCC1OC2C[C@@H]3[C@H]4CCC5=CC(=O)C=C[C@]5(C)[C@H]4C(O)C[C@]3(C)[C@]2(C(=O)CO)O1 (stereo not given in full),inactive: 16.2%,
